{"source": "the RNAGym collection of RNA variant scans (doi:10.7554/elife.90254)", "parents": {"B1": {"name": "LINE1-full (parent)", "chain": "UACGUAGGUGGUUUUCCCCUGAUAGUGCUAAGGGGGCCUGGAAGUUUGGACUGGGCAGAGCUCAACACAGCGUGGCAAAGUGGCUGUGGCUAGACUGCCUCUCUGGAUUCCUCGUCACUCAGCAGGGCAUCUCUGAGAGAAAUGCC"}}, "note": "Read counts are not given, so values of variants with three or more changes are uncertain."}
{"variants_of": "B1", "test": "self-cleavage, relative activity (ratio to wild type); higher = more cleavage; in vitro, sequencing; the parent is a self-cleaving ribozyme"}
{"variant": "U87C U96C A121U", "self-cleavage": 0.07}
{"variant": "U87C U100C A136U", "self-cleavage": 0.76}
{"variant": "U87C U108C U132C A138G A141G", "self-cleavage": 0}
{"variant": "U87C U108C U132G", "self-cleavage": 0}
{"variant": "U87C U108G A138G C146U", "self-cleavage": 0}
{"variant": "U87C U119C C120U", "self-cleavage": 0.07}
{"variant": "G88A A117G A141U", "self-cleavage": 0.07}
{"variant": "G88A A138G A140U", "self-cleavage": 0.08}
{"variant": "G88A C118U U130C", "self-cleavage": 0.06}
{"variant": "G88A G97A U119A A121U", "self-cleavage": 0.05}
{"variant": "G88A U100C A142G", "self-cleavage": 0.04}
{"variant": "G88C C128U U134C U143A", "self-cleavage": 0.05}
{"variant": "G88U G114A A121G", "self-cleavage": 0.04}
{"variant": "G89A A92G C113A U115C", "self-cleavage": 0.03}
{"variant": "G89A A117U U132C", "self-cleavage": 0.02}
{"variant": "G89A U91C U143C", "self-cleavage": 0.04}
{"variant": "G89A U130C A140G", "self-cleavage": 0.04}
{"variant": "G89C U100C A141G", "self-cleavage": 0.01}
{"variant": "C90A U104C A124G", "self-cleavage": 0.09}
{"variant": "C90U A129G A141U", "self-cleavage": 0}
{"variant": "C90U U104C U119A", "self-cleavage": 0.02}
{"variant": "U91A A94U A136G", "self-cleavage": 0.18}
{"variant": "U91A A121G G126A C146U", "self-cleavage": 0.79}
{"variant": "U91A G93U U100C U115C A138G", "self-cleavage": 0.02}
{"variant": "U91A U100C A141U", "self-cleavage": 0.87}
{"variant": "U91A U134C A142G", "self-cleavage": 0.91}
{"variant": "U91C A92U U102A A140G", "self-cleavage": 0.37}
{"variant": "U91C A94U U104C", "self-cleavage": 0.5}
{"variant": "U91C A94U U115A U132C", "self-cleavage": 0.03}
{"variant": "U91C A129G U130A", "self-cleavage": 1.45}
{"variant": "U91C A136G G139A", "self-cleavage": 0.46}
{"variant": "U91C G106U G137A", "self-cleavage": 0.37}
{"variant": "U91C U96A U134A", "self-cleavage": 0.02}
{"variant": "U91C U96C C99A", "self-cleavage": 0}
{"variant": "U91C U100C A117U", "self-cleavage": 1.39}
{"variant": "U91C U100C A142G", "self-cleavage": 0.66}
{"variant": "U91C U102C A117U", "self-cleavage": 1.48}
{"variant": "U91C U104A A136G A141G", "self-cleavage": 0.41}
{"variant": "U91C U108A U143A", "self-cleavage": 0.44}
{"variant": "U91C U112C C123U", "self-cleavage": 0.34}
{"variant": "U91C U115A U132C", "self-cleavage": 1.28}
{"variant": "U91C U130C U143C", "self-cleavage": 2.21}
{"variant": "U91C U132A A140G", "self-cleavage": 0.66}
{"variant": "A92G A117U U130A A138G", "self-cleavage": 0}
{"variant": "A92G A124G A138G", "self-cleavage": 0}
{"variant": "A92G A124U A129G", "self-cleavage": 0}
{"variant": "A92G A129G A141G", "self-cleavage": 0.03}
{"variant": "A92G C99U U115C G135A", "self-cleavage": 0.05}
{"variant": "A92G G93A U96A U104A A107G", "self-cleavage": 0.09}
{"variant": "A92G U96A U112C A140U", "self-cleavage": 0.1}
{"variant": "A92G U100A A136C A138G", "self-cleavage": 0}
{"variant": "A92G U100C A138G", "self-cleavage": 0.22}
{"variant": "A92G U112C A141G", "self-cleavage": 0.25}
{"variant": "A92G U119C G126C G127U U132C", "self-cleavage": 0.06}
{"variant": "A92U A94G C120A", "self-cleavage": 0.18}
{"variant": "A92U A141G A142C", "self-cleavage": 0.8}
{"variant": "A92U A142G U143C", "self-cleavage": 0.82}
{"variant": "A92U U100C C118U", "self-cleavage": 1.09}
{"variant": "A92U U102C U109A A138U A141G", "self-cleavage": 0.58}
{"variant": "A92U U130C G135A", "self-cleavage": 0.66}
{"variant": "A92U U132C U134G", "self-cleavage": 0.5}
{"variant": "G93A U100C U132A", "self-cleavage": 0.05}
{"variant": "G93A U104C U134C A142G", "self-cleavage": 0.06}
{"variant": "G93C A117G C131A", "self-cleavage": 0.04}
{"variant": "G93C U104A U115C", "self-cleavage": 0.06}
{"variant": "G93U U108C U132A A142G", "self-cleavage": 0}
{"variant": "A94C G97A U132C", "self-cleavage": 0.05}
{"variant": "A94G A107G U115A", "self-cleavage": 0.48}
{"variant": "A94G A121U A141G", "self-cleavage": 0.41}
{"variant": "A94G A121U U130A", "self-cleavage": 0.13}
{"variant": "A94G A124U G139A", "self-cleavage": 0}
{"variant": "A94G A138G A142G", "self-cleavage": 0.43}
{"variant": "A94G C110A A136U", "self-cleavage": 0.2}
{"variant": "A94G G122A A140G", "self-cleavage": 0.33}
{"variant": "A94G U100C A124U", "self-cleavage": 0.41}
{"variant": "A94G U100C C110A", "self-cleavage": 0.64}
{"variant": "A94G U102C G144A", "self-cleavage": 0.24}
{"variant": "A94G U104A U109C", "self-cleavage": 0}
{"variant": "A94G U104A U134A", "self-cleavage": 0.61}
{"variant": "A94G U112A G125A U143C", "self-cleavage": 0.27}
{"variant": "A94G U112G C113U A136U", "self-cleavage": 0.23}
{"variant": "A94G U115A U132C", "self-cleavage": 0.8}
{"variant": "A94G U115C U143G", "self-cleavage": 0.15}
{"variant": "A94G U119A A138G", "self-cleavage": 0.43}
